Test results from PubChem BioAssay AID662 (National Center for Advancing Translational Sciences (NCATS), 2007).
The campaign covered roughly 71,000 compounds. About 1,800 (2.5%) were called active. Inconclusive means that the source gave no clear call. Such entries were picked first, then a sample of the others. Calls follow the shape of the dose curve; as a rule, active = well fitted activation curve with a large enough effect in the signal ratio, with a control signal flat (not every such curve was filed as active); inconclusive = small, poorly fitted or top-dose-only effect, or effect the other way, or a change in a side signal; inactive = flat fitted curve, though single readings scatter; the % refers to the signal ratio. Potencies beside an inconclusive call are fits to weak or partial responses and may not hold up.

Assay: Cell signaling CRE-BLA (Fsk stim); as to activity change, negative = inhibition: % of control where 0% means no effect
Conditions: CHO CRE-bla reporter (cAMP response element driving beta-lactamase), forskolin EC10, beta-lactamase ratio
Summary of the method: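 CRE-bla CHO cells stimulated with EC10 NKH 477 (water-soluble forskolin) and compound titrations, 3 h at 37C; beta-lactamase read with CCF4 after 2 h at room temperature. Activity from 460/530 nm emission ratio, AC50 values for positive or negative modulation.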

[1] = activity change, negative = inhibition: at 38.2 µM (top of the series) unless noted
Potency is read from the fitted curve at half-maximal effect; tags tell the direction and shape of the fitted curve.

For `COc1cccc(OCc2nc3ncc(Br)cc3[nH]2)c1`, which activity change, negative = inhibition [1] is on record?
Its activity change, negative = inhibition is inconclusive: 25.6%.

With `O=C1N=C(N2CCOCC2)S/C1=C1\C(=O)N(Cc2ccccc2)c2ccc(Br)cc21` as the compound, how does the activity change, negative = inhibition [1] read?
Its activity change, negative = inhibition is “inactive”.

With `CCn1c(SCC(=O)N2CCc3ccccc3C2)nc2c1c(=O)n(C)c(=O)n2C` as the compound, how does the activity change, negative = inhibition [1] read?
The activity change, negative = inhibition was inconclusive: 12.9%.

For `COC(=O)c1ccccc1NC(=O)c1cnn2c(C(F)F)cc(C3CC3)nc12`, which Potency [1] is on record?
Its Potency is active: 3.16 µM.

For `CC(=O)Nc1cccc(-c2nnc(SCc3ccccc3C#N)n2C)c1`, which Potency [1] is on record?
The Potency was inconclusive: 3.98 µM [rising, single point].

For `CNc1nc(-c2ccccc2CN(C)C)nc2ccccc12`, which Potency [1] is on record?
The Potency was inconclusive: 12.6 µM [rising, single point].

Which Potency [1] does the source give for `CCOc1cc2c(cc1C(C)(C)C)NC(=O)CS2` here?
The Potency was inconclusive: 12.6 µM [rising, partial curve].

Which activity change, negative = inhibition [1] does the source give for `Fc1ccc(Nc2nc(-c3ccoc3)nc3ccccc23)cc1` here?
The activity change, negative = inhibition was inconclusive: 5.21%.

Which Potency [1] does the source give for `COCC(C)n1c(SCC(=O)NC(=O)Nc2ccc3c(c2)OCCO3)nc2ccccc2c1=O` (stereo not given) here?
Its Potency is inconclusive: 10 µM [rising, single point].

With `CCOC(=O)CC(=O)CSc1nc(C)cc(-c2cccnc2)c1C#N` as the compound, how does the Potency [1] read?
Its Potency is inconclusive: 12.6 µM [rising, partial curve].

Which activity change, negative = inhibition [1] does the source give for `c1ccc(-c2nc(CSc3nnc(-c4cccs4)o3)cs2)cc1` here?
The activity change, negative = inhibition was inconclusive: -9.99%.

For `COc1cccc(C(=O)N(CN2CCCC2=O)c2cccc(Cl)c2)c1OC`, which activity change, negative = inhibition [1] is on record?
Its activity change, negative = inhibition is inconclusive: 6.28%.

For `Cc1cc(N2C(=O)CCC2=O)n(-c2ccccc2)n1`, which activity change, negative = inhibition [1] is on record?
The activity change, negative = inhibition was “inactive”.

With `CCOP(=O)(c1c(F)c(F)c(F)c(F)c1F)C1(O)CCCCC1` (stereo not given) as the compound, how does the activity change, negative = inhibition [1] read?
The activity change, negative = inhibition was inconclusive: 21.1%.

With `NC(=O)c1ccsc1NC(=O)c1nc(-c2ccccc2)n(-c2ccccc2)n1` as the compound, how does the Potency [1] read?
Its Potency is inconclusive: 25.1 µM [falling, single point].

With `CCC(Oc1ccccc1)C(=O)N1CCC(C(N)=O)CC1` (stereo not given) as the compound, how does the activity change, negative = inhibition [1] read?
Its activity change, negative = inhibition is “inactive”.

With `O=C(CSCc1ccc(Cl)cc1)c1ccco1` as the compound, how does the activity change, negative = inhibition [1] read?
Its activity change, negative = inhibition is “inactive”.

For `COc1ccc(-n2c(=O)c(-c3cccs3)nc3cnc(Nc4cccc(OC)c4)nc32)cc1`, which Potency [1] is on record?
Its Potency is inconclusive: 7.94 µM [falling, partial curve].

For `O=C(O)c1cc(-c2cccnc2)nn1-c1ccccn1`, which activity change, negative = inhibition [1] is on record?
The activity change, negative = inhibition was inconclusive: -3.35%.

What does the source list for `Cc1nc2c(OCc3ccccc3)cccn2c1CC#N`?
activity change, negative = inhibition [1]: inconclusive: 10.8%; activity change, negative = inhibition (at 38.2 µM (top of the series)): inactive: 4.97%

With `O=C(CSc1nc2ccccc2c(=O)n1-c1ccccc1)NCc1ccco1` as the compound, how does the activity change, negative = inhibition [1] read?
The activity change, negative = inhibition was “inactive”.

For `CCCCOC(=O)Nc1sc2c(c1C(=O)OC)CCC2`, which activity change, negative = inhibition [1] is on record?
The activity change, negative = inhibition was inconclusive: 25.3%.

With `CC(C)CCNC(=O)C(c1ccco1)N(Cc1ccccc1)C(=O)c1snc(C(N)=O)c1N` (stereo not given) as the compound, how does the activity change, negative = inhibition [1] read?
The activity change, negative = inhibition was “inactive”.

With `CCOC(=O)C1CCN(Cc2ccc(OC)c(C)c2OC)CC1` as the compound, how does the activity change, negative = inhibition [1] read?
Its activity change, negative = inhibition is inconclusive: 3.6% [at 7.6 µM].

With `O=C(CCC1=NS(=O)(=O)c2ccccc2N1)NC1CCCCCCC1` as the compound, how does the Potency [1] read?
The Potency was inconclusive: 12.6 µM [falling, single point].

For `CCc1ccc(Cn2nnc(C(=O)Nc3ccc(OC)cc3OC)c2N)cc1`, which activity change, negative = inhibition [1] is on record?
Its activity change, negative = inhibition is “inactive”.

For `Cc1cccc(NC(=O)C2CCN(S(=O)(=O)c3cccc4cccnc34)CC2)c1`, which activity change, negative = inhibition [1] is on record?
Its activity change, negative = inhibition is inconclusive: -25.4%.

With `COCCOC(=O)C1=C(C)NC(C)=C(C(=O)OC(C)C)[C@@H]1c1cccc([N+](=O)[O-])c1` as the compound, how does the activity change, negative = inhibition [1] read?
Its activity change, negative = inhibition is inconclusive: -7.02%.

For `CCC(C)(NC(=O)CNC(C)=O)C(=O)NC1CCCCC1` (stereo not given), which activity change, negative = inhibition [1] is on record?
The activity change, negative = inhibition was inconclusive: -13.7%.

For `CCOC(=O)N1CCN(CCC(=O)Nc2ccc(OC(F)(F)F)cc2)CC1`, which activity change, negative = inhibition [1] is on record?
Its activity change, negative = inhibition is inconclusive: -8.58%.

With `CCN(CC)CCn1c(=N)n(CCO)c2ccccc21` as the compound, how does the activity change, negative = inhibition [1] read?
Its activity change, negative = inhibition is “inactive”.

For `CCOc1ccc(-c2nnc(-c3snc(-c4ccc(F)cc4)c3N=CN(C)C)o2)cc1`, which activity change, negative = inhibition [1] is on record?
Its activity change, negative = inhibition is “inactive”.

With `CCCCS(=O)CC(COc1ccc(Cl)cc1)OC(=O)c1ccccc1` (stereo not given) as the compound, how does the activity change, negative = inhibition [1] read?
Its activity change, negative = inhibition is inconclusive: 23.5% [at 7.6 µM].

With `COC(=O)N1CCC2(CCCN(Cc3ccccc3)C2)CC1` as the compound, how does the activity change, negative = inhibition [1] read?
Its activity change, negative = inhibition is “inactive”.

With `Clc1nnc2ccc(-c3ccccc3)nn12` as the compound, how does the Potency [1] read?
Its Potency is inconclusive: 5.01 µM [rising, partial curve, poor fit].

Which activity change, negative = inhibition [1] does the source give for `Cc1cc(-n2c(C)cc(C(=O)CN3C(=O)NC4(CCCCCC4)C3=O)c2C)no1` here?
The activity change, negative = inhibition was “inactive”.

Which Potency [1] does the source give for `Cc1noc(/C=C/N(C)C)c1S(=O)(=O)N1CCc2ccccc21` here?
The Potency was inconclusive: 25.1 µM [falling, single point].

Which Potency [1] does the source give for `COC(=O)c1sc(=S)sc1C(=O)OC` here?
The Potency was inconclusive: 20 µM [falling, partial curve].

For `CCC(=O)Nc1nn(C)c2nc3c(C)cccc3cc12`, which Potency [1] is on record?
Its Potency is active: 10 µM.

With `O=S(=O)(c1ccccc1)N1CCC2(CCN(c3cccc(-c4ccccc4)c3)CC2)CC1` as the compound, how does the activity change, negative = inhibition [1] read?
Its activity change, negative = inhibition is “inactive”.

With `Cc1cc(NC(=O)CSc2ccc3nnc(-c4ccc(Cl)cc4)n3n2)no1` as the compound, how does the activity change, negative = inhibition [1] read?
Its activity change, negative = inhibition is “inactive”.

For `Cc1ccc2c(c1)CCCN2C(=O)C1CCCO1` (stereo not given), which activity change, negative = inhibition [1] is on record?
Its activity change, negative = inhibition is “inactive”.

With `C[C@@](Cc1ccccc1)(NC(=O)CN)c1ccccc1` as the compound, how does the activity change, negative = inhibition [1] read?
Its activity change, negative = inhibition is inconclusive: -14.6%.

For `CC(=O)N1CCc2cc(S(=O)(=O)NC(CC(C)C)C(=O)N3CCn4c3nc3ccccc34)ccc21` (stereo not given), which activity change, negative = inhibition [1] is on record?
Its activity change, negative = inhibition is inconclusive: -2.63%.

For `COc1ccc(-c2nnc(SCC(=O)NCc3ccco3)o2)cc1`, which activity change, negative = inhibition [1] is on record?
Its activity change, negative = inhibition is “inactive”.

Which activity change, negative = inhibition [1] does the source give for `CC1=C(C(=O)OC2CCCCC2)C(c2ccco2)C2=C(CC(C)(C)CC2=O)N1` (stereo not given) here?
Its activity change, negative = inhibition is inconclusive: 21.4%.

For `CC1(C)CC(=O)c2sc(NC(=O)CN3C(=O)CCC3=O)nc2C1`, which activity change, negative = inhibition [1] is on record?
Its activity change, negative = inhibition is “inactive”.

With `O=C(Nc1ccc(Cl)cn1)c1cc2ccccc2o1` as the compound, how does the activity change, negative = inhibition [1] read?
The activity change, negative = inhibition was “inactive”.

For `COc1ccccc1-n1c(SCC(=O)N(C)C2CCS(=O)(=O)C2)nc2ccccc2c1=O` (stereo not given), which activity change, negative = inhibition [1] is on record?
The activity change, negative = inhibition was inconclusive: -6.89%.

Which activity change, negative = inhibition [1] does the source give for `O=C(CSc1ncn(-c2ccccc2)n1)Nc1nc2ccccc2s1` here?
Its activity change, negative = inhibition is inconclusive: -27.3%.

With `O=C(Nc1cc(N2CCOCC2)ncn1)NC1(C(F)(F)F)Oc2ccc(Cl)cc2O1` (stereo not given) as the compound, how does the activity change, negative = inhibition [1] read?
Its activity change, negative = inhibition is inconclusive: -23.2%.

Which activity change, negative = inhibition [1] does the source give for `CCOC(=O)c1c(C)n(C)c2ccc(OC(=O)c3ccoc3)cc12` here?
Its activity change, negative = inhibition is inconclusive: -18.1%.

Which Potency [1] does the source give for `COc1ccc2[nH]cc(CCNc3ncnc4ccc(-c5cccnc5)cc34)c2c1` here?
The Potency was inconclusive: 1.26 µM [rising, partial curve].

For `CC1CCCCC1NS(=O)(=O)c1ccc(S(=O)(=O)NCc2ccncc2)cc1` (stereo not given), which activity change, negative = inhibition [1] is on record?
The activity change, negative = inhibition was inconclusive: -3.2%.
